Test results: PMC6919601, “Identification of Plasmodium dipeptidyl aminopeptidase allosteric inhibitors by high throughput screening” (PLoS ONE, 2019)
Screen size: about 110,000 compounds; about 230 (0.21%) showed an effect of 50% or more. The list shows a part of the results.

Molecular target: DPAP1 (Plasmodium falciparum, UniProt Q8IIJ9)
Test: primary screen, percent inhibition; read by cleavage of a fluorogenic dipeptide substrate; higher = more effect of the substance
Parameters: species or system P. falciparum D10 trophozoite lysates; single well
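Also: 30 min substrate incubation versus DMSO and 10 µM JCP410 controls.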

DPAP1, sequence (Q8IIJ9 whole entry, looked up): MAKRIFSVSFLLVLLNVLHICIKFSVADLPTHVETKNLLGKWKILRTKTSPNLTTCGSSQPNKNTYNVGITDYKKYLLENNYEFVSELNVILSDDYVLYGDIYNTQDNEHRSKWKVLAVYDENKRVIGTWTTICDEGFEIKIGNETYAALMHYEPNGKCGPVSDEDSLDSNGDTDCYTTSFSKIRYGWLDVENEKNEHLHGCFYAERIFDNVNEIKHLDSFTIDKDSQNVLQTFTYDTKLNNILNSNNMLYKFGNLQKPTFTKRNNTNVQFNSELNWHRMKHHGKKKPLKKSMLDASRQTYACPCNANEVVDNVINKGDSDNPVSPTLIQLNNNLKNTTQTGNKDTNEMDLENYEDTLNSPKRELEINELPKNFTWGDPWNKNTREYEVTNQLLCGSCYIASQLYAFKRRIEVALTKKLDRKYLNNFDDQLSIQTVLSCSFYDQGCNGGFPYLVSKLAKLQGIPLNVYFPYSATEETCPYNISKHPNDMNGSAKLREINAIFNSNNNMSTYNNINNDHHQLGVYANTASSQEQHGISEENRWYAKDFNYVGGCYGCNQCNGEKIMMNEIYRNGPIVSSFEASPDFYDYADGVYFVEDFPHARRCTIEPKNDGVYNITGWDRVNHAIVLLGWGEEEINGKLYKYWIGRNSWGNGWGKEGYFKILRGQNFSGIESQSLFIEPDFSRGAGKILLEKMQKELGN

| SMILES | % Inhibition @ 10 uM [%] |
| --- | --- |
| O=C(NC1CCc2ccccc21)C1CCCN(c2cnccn2)C1 (stereo not drawn) | 8.16 |
| CC(C)NC(=O)C(=O)NCCc1ccccc1 | 1.29 |
| Cc1cc(C)cc(NS(=O)(=O)c2ccc(NC(=O)c3ccccc3C(=O)O)cc2)c1 | -4.02 |
| CCN(CC)CCN(C)Cc1ccc(Br)cc1 | -2.34 |
| Cc1ncc(CO)c2c1Oc1nc(-c3ccccc3)nc(SCC(=O)N3CCOCC3)c1C2 | 3.77 |
| CCOC(=O)c1c(-c2ccccc2)csc1NC(=O)CN1CCCCC1 | -1.29 |
| CCCSC1=C(C#N)C(c2ccccc2)C(C(=O)Nc2ccccc2OC)=C(C)N1 (stereo not drawn) | -4.67 |
| CCCN(CCO)Cc1ccc(Cl)c(Cl)c1 | 2.7 |
| C=CCNc1sc(S(C)(=O)=O)nc1S(=O)(=O)c1ccc(C)cc1 | 8.55 |
| COc1ccccc1N1CCN(S(=O)(=O)c2c(C(C)C)cc(C(C)C)cc2C(C)C)CC1 | 2.47 |
| Cc1oc(-c2ccccc2Cl)nc1CSc1nc(O)c2c(n1)CCC2 | 2.04 |
| COc1ccccc1OCCNC(=O)c1ccc(Br)cc1 | -1.52 |
| CCc1nnc(NC(=O)C2Cc3ccc(C)cc3C(=O)O2)s1 (stereo not drawn) | 0.221 |
| COc1ccc2c(Sc3ccc(Cl)cc3)c(C(=O)N3CCOCC3)[nH]c2c1 | -2.45 |
| c1nc(N2CCC3(CC2)OCCO3)c2nc[nH]c2n1 | 0.287 |
| C=CCc1cc(/C=C2/NC(=O)N(Cc3ccc(F)cc3)C2=O)cc(OC)c1O | -1.57 |
| Cc1ccc2[nH]c3c(c2c1)CCCC3C(N)=O (stereo not drawn) | -3.14 |
| CCOC(=O)c1c(C)[nH]c(C)c1S(=O)(=O)N(C)CC(=O)N1CC=C(c2ccccc2)CC1 | -8.46 |
| CN(CCCNC(=O)C1CCN(c2nnc(N3CCCC3=O)s2)CC1)C1CCCCC1 | -6.58 |
| Clc1cccc(-c2nnn3c2nc(NCC2CCCO2)c2ccccc23)c1 (stereo not drawn) | -6.52 |
| COc1ccc(CC(=O)Nc2ccccc2C(N)=O)cc1 | -7 |
| CNC(=O)/C(C#N)=C/c1c(Oc2ccccc2OC)nc2c(C)cccn2c1=O | -9.06 |
| c1ccc(NCc2csc3ccccc23)cc1 | -4.4 |
| CC(=O)Nc1ccc(NC(=O)c2sc3cccc(Cl)c3c2Cl)cc1 | 0.746 |
| O=C(NCc1ccccc1)C1CC(c2ccc(F)cc2)=NO1 (stereo not drawn) | 2.85 |
| CSC1=C(C#N)C2(CCCCC2)C(C(=O)Nc2ccccc2)=C(C)N1 | 3.9 |

| SMILES | % Inhibition @ 10 uM [%] |
| --- | --- |
| COC(=O)/C(=C/c1ccc(F)cc1)NC(=O)c1ccccc1 | 0.685 |
| Cn1c(S(C)(=O)=O)nc2ccccc21 | -3.14 |
| CCN(CC)CCn1c2ccccc2n2cc(-c3ccc(-c4ccccc4)cc3)nc12 | -0.436 |
| N#CC1=C(N)SC(N)=C(C#N)C1c1cccs1 | 40.6 |
| CCCCc1nc2ccccc2c(C(=O)O)c1C | -2.15 |
| COc1cc(C(=O)Nc2nc3ccc4ccccc4c3s2)cc(OC)c1OC | 2.79 |
| Cc1cccc(NC(=O)c2cc3c(=O)n4cccc(C)c4nc3n2C)c1 | 0.214 |
| CCOC(=O)C1=CN(Cc2ccc(F)cc2)C=C(C(=O)OCC)C1c1cccc(OCC)c1 | -5.05 |
| Cc1ccc(C(=O)CC2(O)C(=O)Nc3ccccc32)c(C)c1 (stereo not drawn) | -2.03 |
| Cc1ccc2c(Cl)c(C(=O)NC3CC3)sc2c1 | 2.36 |
| COc1cc(/C=C/C(O)=C2\C(=O)Oc3ccccc3C2=O)cc(OC)c1OC | 3.47 |
| C=Cc1ccc(Cn2c(C(=O)O)c(CNCc3cccc(OC)c3)c3ccc(C)cc32)cc1 | 9.35 |
| CCOc1ccccc1NC(=O)CSCc1ccc(Cl)cc1 | 2.15 |
| CC(C)CCNC(=O)c1nnc(-c2ccccc2)o1 | -3.34 |
| Cc1cc(-c2ccc(C)c(S(=O)(=O)N3CCCCCC3)c2)on1 | -1.16 |
| Cc1ccc(NC(=O)c2ccc3ccccc3c2)c(Br)c1 | 3.44 |
| O=C(NCc1ccc(-n2cccc2)cc1)c1cc2ccccc2oc1=O | 1.32 |
| CCSc1nc2c(c(=O)n1-c1ccc(C)cc1)C1(CCCC1)Cc1ccccc1-2 | -5.62 |
| CCOc1ccc(C2C(C(=O)c3ccc(C)cc3)=C(C(=O)OC)Nc3nnnn32)cc1 (stereo not drawn) | -4.84 |
| COc1ccc2[nH]c3c(=O)n(CCCC(=O)NCc4ccccn4)c(=S)[nH]c3c2c1 | -3.95 |
| Cc1oc2c(C)c3oc(=O)c(CCC(=O)N4CCOCC4)c(C)c3cc2c1C | -4.39 |
| COCCNC(=O)C1Sc2nnc(C)n2NC1c1ccc(OC)cc1 (stereo not drawn) | -3.76 |
| Cc1ccc(S(=O)(=O)N2CCC(C(=O)Nc3nnc(C(C)C)s3)CC2)cc1 | 3.88 |
| COc1cc(C2C(C#N)=C(N)Oc3[nH]nc(C)c32)cc(Br)c1OCc1cccc(C)c1 (stereo not drawn) | 3.62 |
| CC(=O)N1C(O)CCN1c1ccccc1 (stereo not drawn) | 0.968 |
